Here are results for 53 molecules from PubChem BioAssay AID1346428 (National Center for Advancing Translational Sciences (NCATS), 2018).

SMILES strings stand for the structures. The campaign covered roughly 48,000 compounds. About 1,200 (2.5%) were called active. Roughly 2% stayed inconclusive and do not appear here.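 Rule for the calls: active = activation of at least 60% and not above a set upper limit (about 1 call in 100 departs from these limits); inconclusive = activation of 40% to 60%, or above that upper limit; inactive = activation under 40%.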 Some of the results follow.

UniProt O75388, sequence (O75388 whole entry, looked up): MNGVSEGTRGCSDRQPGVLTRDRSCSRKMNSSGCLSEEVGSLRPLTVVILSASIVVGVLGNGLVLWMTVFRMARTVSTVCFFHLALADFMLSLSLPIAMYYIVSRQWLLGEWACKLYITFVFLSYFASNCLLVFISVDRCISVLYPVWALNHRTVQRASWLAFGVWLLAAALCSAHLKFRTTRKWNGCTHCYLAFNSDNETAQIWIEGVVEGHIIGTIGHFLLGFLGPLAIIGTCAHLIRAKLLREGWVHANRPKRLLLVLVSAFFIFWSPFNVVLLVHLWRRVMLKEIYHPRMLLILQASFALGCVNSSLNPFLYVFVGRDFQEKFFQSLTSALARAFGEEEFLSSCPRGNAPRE

The experiment deals with Probable G-protein coupled receptor 32 (Homo sapiens) (UniProt O75388). Briefly: qHTS for Agonists of Human Resolvin D1 Receptor DRV1. Note: 0% is about no effect. Particulars: CHO-K1 GPR32 beta-arrestin PathHunter luminescence, 90 min; at 76.9 µM; stronger effect = higher value; zero percent set by DMSO-only wells. Put shortly:
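Readings come from a cell-based beta-arrestin complementation format: CHO-K1 GPR32 stable cells (2,500/well) treated 90 min with compounds, then beta-Gal substrate added for 1 h before chemiluminescence imaging.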
With `CCc1ccc(CNC(=O)c2ccc3nc(SCc4ccc(F)cc4)n(C)c3c2)cc1`, the activation is inactive: 14.2%.
Consider `Cc1ccc(NC(=O)CSc2cc(=O)n(C)c3ccc(Cl)cc23)c(Br)c1`, for which the activation was inactive: -1.51%.
Regarding `CC(NC(=O)c1ccc2c(c1)N(Cc1cccc(F)c1)C(=O)c1ccccc1S2)c1ccccc1` (stereo not drawn), the activation is inactive: -22.7%.
Turning to `Cc1ccc(NC(=O)c2cnn(-c3ccc(C)c(C)c3)c2C2CCN(C(=O)OC(C)(C)C)CC2)c(C)c1`, the activation was inactive: -28.1%.
With `Cc1cccc(NC(=O)Cn2c(=O)n(CCC(C)C)c(=O)c3cccnc32)c1`, the activation was inactive: -2.15%.
As for `CCCCN(C)CCNC(=O)c1c(C)oc2ncnc(N3CCOCC3)c12`, the activation was inactive: -13%.
For `COc1cc(NC(=O)CN2C(=O)C(c3ccc(C)cc3)=NC23CCCCC3)cc(OC)c1` the value was inactive: -28.8%; for `Cc1oc2ccc(O)c(CN3CCOCC3)c2c1C(=O)Nc1ccccc1`, inactive: -2.76%; for `Cc1ccc(CNc2ccc(-c3nc(C(C)C)no3)cc2[N+](=O)[O-])cc1`, inactive: -12.5%.
For `Cc1ccc(-n2nc(C(=O)N3CCN(c4cccc(C(F)(F)F)c4)CC3)c(=O)n(C)c2=O)cc1`, the activation is inactive: -5.79%.
Turning to `O=C(CCSCCc1ccccn1)Nc1cc(F)ccc1F`, the activation was inactive: -0.329%.
On to `Cc1ccc(-n2c(=O)c3c(c4cc(C)ccc4n3C)n(CC(=O)Nc3c(C)cccc3C)c2=O)cc1`, for which the activation was inactive: 13%.
With `CCOc1ccc(CCNC(=O)Cn2ncc3c([nH]c4ccccc43)c2=O)cc1OCC`, the activation was inactive: -3.92%.
`O=C(N/N=C/c1ccc([N+](=O)[O-])o1)c1ccc(O)cc1`: the activation was inactive: -22.7%.
For the molecule `Cc1cncn1CCc1nc2c3ccccc3nc(SCC(=O)Nc3ccc(F)cc3)n2n1`, the activation is inactive: -10.5%.
Regarding `CCc1cccc(NC(=O)C2CCC(CNS(=O)(=O)c3ccc4c(c3)CCCC(=O)N4)CC2)c1` (stereo not drawn), the activation is inactive: 4.49%.
For `CCN(C(=O)Cn1c(=O)nc(-c2ccccc2)c2cc(Cl)ccc21)c1cccc(C)c1`, the activation is inactive: -7.41%.
For the molecule `CCOc1ccccc1CNC(=O)c1cnc2sc(N3CCOCC3)nn2c1=O`, the activation is inactive: -8.95%.
For `Clc1ccccc1-c1nnc(-c2ccccc2CNc2ccc(Br)cc2)o1`, the activation was inactive: -4.01%.
As to `CCOc1ccc(-n2c(SCC(=O)Nc3ccc4c(c3)OCCO4)nc3c([nH]c4ccccc43)c2=O)cc1`, the activation is inactive: -6.26%.
For `OCCN1CCN(C(c2ccc(Cl)cc2Cl)c2sc3nc(-c4ccco4)nn3c2O)CC1` (stereo not drawn), the activation is inactive: 20.4%.
For `CCc1nc2ccc(C(=O)NCc3ccc(SC)cc3)cc2nc1CC`, the activation was inactive: -20.7%.
Turning to `C#CCSc1nc(-c2ccccc2)c2cc(Cl)ccc2n1`, the activation is inactive: -13.1%.
Take `CCOc1ccccc1NC(=O)CCc1c(C)nc2c(c(C)nn2-c2ccccc2)c1C`: the activation is inactive: 15.3%.
Consider `COc1ccc(-c2cc(OC(=O)c3ccccc3)c3c(C)oc(C)c3c(=O)c2)cc1OC`, for which the activation was inactive: -18.4%.
Turning to `COc1cccc(NC(CNS(=O)(=O)c2ccc(Cl)cc2)c2ccccc2)c1` (stereo not drawn), the activation is active: 77.4%.
In the case of `CC(C)c1ccc2c(c1)NC(c1ccncc1)=NC(c1cccs1)=N2`, the activation is inactive: -8.21%.
For `CCc1cccc(NC(=O)C(NS(=O)(=O)c2ccc3nc(C)sc3c2)C(C)C)c1` (stereo not drawn) the value was inactive: -4.28%; for `O=C(CCS(=O)(=O)c1cc(Br)cc2c1N(C(=O)C1CC1)CC2)Nc1ccc(F)cc1`, inactive: 0.789%; for `Cc1ccc(CNC(=O)c2sc3nc(-c4ccccc4)cn3c2C)cc1`, inactive: 25.5%.
As for `Cc1ccc(Cl)cc1N1CCN(C(=O)c2ccc3c(c2)N(Cc2ccccc2F)C(=O)c2ccccc2S3=O)CC1` (stereo not drawn), the activation is inactive: 10.2%.
Take `CCCN1C(=O)c2[nH]nc(-c3cccc(OC)c3)c2C1c1ccccn1` (stereo not drawn): the activation is inactive: -12.1%.
Turning to `CC(C)Cn1c(=O)c2ccccc2n2c(CCC(=O)NCc3ccc(Cl)cc3)nnc12`, the activation was inactive: 6.95%.
Next, `O=C(NCc1ccc(F)cc1)c1ccc(Cn2c(SCc3ccc(F)cc3)nc3cccnc32)cc1`: inactive: 33.8%.
In the case of `Cc1cc(C)cc(-n2c(C)nc3cc(C(=O)NCc4ccc(F)cc4)ccc32)c1`, the activation was inactive: 22.4%.
With `Cn1nnc2c(NCc3ccccc3)ncnc21`, the activation is inactive: -14.7%.
As to `Cc1cc(C)cc(NC(=O)c2cnn(-c3ccc(C)c(C)c3)c2C2CCNCC2)c1`, the activation is inactive: -8.54%.
Consider `CCOc1ccc(CCNC(=O)c2cn(-c3cccc(OC)c3)c(=O)c3ccccc23)cc1`, for which the activation is inactive: -24.1%.
As to `O=C(CCC(=O)N1CCSc2ccccc21)NCc1ccccc1Cl`, the activation is inactive: -32.1%.
With `CCC(C)NC(=O)c1ccc2c(c1)N(Cc1ccccc1F)C(=O)c1ccccc1S2=O` (stereo not drawn), the activation was inactive: -23.5%.
For `CCCCn1c(=N)c(C(=O)NC2CCCCC2)cc2c(=O)n3cccc(C)c3nc21` the value was inactive: 4.3%.
Regarding `Cn1c(=O)oc2cc(S(=O)(=O)NCCC(=O)NCc3ccc(F)cc3)ccc21`, the activation was inactive: 3.34%.
Next, `Cc1cccc(Nc2cc(Cl)nc(SCC(=O)O)n2)c1C`: inactive: 16.5%.
As to `COc1ccc(NC(=O)CN2C(=O)C3(SCC(=O)N3c3ccccc3)c3ccccc32)cc1Cl` (stereo not drawn), the activation is inactive: -4.9%.
For `Cc1c(C(=O)N(Cc2cccc(F)c2)C2CCS(=O)(=O)C2)oc2cc(Br)ccc12` (stereo not drawn) the value was inactive: -29.4%; for `O=c1cc(-c2ccc(F)cc2)nc(SCc2nc(-c3cccc(C(F)(F)F)c3)no2)[nH]1`, inactive: -3.38%; for `COc1ccc(CNC(=O)c2cccc(N3CCCS3(=O)=O)c2)cc1OC`, inactive: 46.3%.
In the case of `Cc1ccc(C(C)C)cc2c(C)ccc1-2`, the activation is inactive: -4.14%.
As to `O=C(Cn1ncn2nc(-c3cccs3)cc2c1=O)NCc1ccccc1Cl`, the activation was inactive: 1.53%.
Turning to `CC(C)c1ccc(NC(=O)c2ccc(Cn3nc(N4CCN(c5ccccc5)CC4)ccc3=O)o2)cc1`, the activation is inactive: 10.1%.
With `CCn1c(=NC(=O)c2ccc(S(=O)(=O)N3CCCC3)cc2)sc2cc(Br)ccc21`, the activation is inactive: 7.03%.
Next, `CCOC(=O)c1c(C)c(-c2ccccc2)n(CC(=O)NC2CCCCCC2)c1C`: inactive: 5.91%; `CC(C)=CCC/C(C)=C/CC/C(C)=C/CCC(=O)OC/C=C(\C)CCC=C(C)C`: inactive: 10.6%.
